63 sequences from PMC12820563 can be followed below.

Some of the results follow. The list includes weakly bound sequences.

The assay addresses T1, MBP-FoxP3dN (UniProt Q99JB6).
T1 sequence: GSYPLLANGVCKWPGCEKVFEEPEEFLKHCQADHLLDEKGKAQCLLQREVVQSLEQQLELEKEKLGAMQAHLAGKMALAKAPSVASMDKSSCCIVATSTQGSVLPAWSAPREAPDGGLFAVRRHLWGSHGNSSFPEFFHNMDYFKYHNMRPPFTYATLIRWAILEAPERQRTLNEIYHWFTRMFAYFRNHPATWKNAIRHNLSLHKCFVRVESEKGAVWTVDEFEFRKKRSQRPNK
The assay can be described thus: PD-seq (MBP pull-down with sequencing). As to conditions: 20 mM Tris-HCl pH 7.5, 100 mM NaCl, 1.5 mM MgCl2, 0.4 uM protein, 0.1 uM dsDNA library, 30 min, room temperature, amylose pull-down; high values mean tight binding; double strand, one strand shown.
For the sequence “GATGATTGTTCTCCCAGCTGATGAATTGAGGCCTTCGAGTAAACAAATTTTCCTAATCTTTCTGTTCAAGCGCCATCTAC”, the binding signal (RPM ratio (pull-down/input)) came to 1.6.
Under “GATGATTGTTCTCCCAGCTGATGAATTCGCCATGTCGAGTAAACAAATTTTCCTAATCTTTCTGTTCAAGCGCCATCTAC” stands 0.854; under “GATGATTGTTCTCCCAGCTGATGAATTAACCATGTCGAGTAAACAAATTTTCCTAATCTTTCTGTTCAAGCGCCATCTAC”, 0.325; under “GATGATTGTTCTCCCAGCTGATGAATTTGCGGGTTCGAGTAAACAAATTTTCCTAATCTTTCTGTTCAAGCGCCATCTAC”, 1.
Consider “GATGATTGTTCTCCCAGCTGATGAATTCCGCGGTTCGAGTAAACAAATTTTCCTAATCTTTCTGTTCAAGCGCCATCTAC”, for which the binding signal (RPM ratio (pull-down/input)) came to 0.597.
As to “GATGATTGTTCTCCCAGCTGATGAATTTGCTTATTCGAGTAAACAAATTTTCCTAATCTTTCTGTTCAAGCGCCATCTAC”, the binding signal (RPM ratio (pull-down/input)) came out at 6.84.
Next, “GATGATTGTTCTCCCAGCTGATGAATTACCGAGTTCGAGTAAACAAATTTTCCTAATCTTTCTGTTCAAGCGCCATCTAC”: 0.417.
Regarding “GATGATTGTTCTCCCAGCTGATGAATTTGGGTGATCGAGTAAACAAATTTTCCTAATCTTTCTGTTCAAGCGCCATCTAC”, the binding signal (RPM ratio (pull-down/input)) was determined as 0.575.
Next, “GATGATTGTTCTCCCAGCTGATGAATTCAAACCTTCGAGTAAACAAATTTTCCTAATCTTTCTGTTCAAGCGCCATCTAC”: 0.284.
Under “GATGATTGTTCTCCCAGCTGATGAATTTGCCAGGTCGAGTAAACAAATTTTCCTAATCTTTCTGTTCAAGCGCCATCTAC” stands 0.375; under “GATGATTGTTCTCCCAGCTGATGAATTATGGTAATCGAGTAAACAAATTTTCCTAATCTTTCTGTTCAAGCGCCATCTAC”, 0.786.
Under “GATGATTGTTCTCCCAGCTGATGAATTACAAGACTCGAGTAAACAAATTTTCCTAATCTTTCTGTTCAAGCGCCATCTAC” stands 0.327; under “GATGATTGTTCTCCCAGCTGATGAATTAGTGAATTCGAGTAAACAAATTTTCCTAATCTTTCTGTTCAAGCGCCATCTAC”, 0.976; under “GATGATTGTTCTCCCAGCTGATGAATTTCGCCATTCGAGTAAACAAATTTTCCTAATCTTTCTGTTCAAGCGCCATCTAC”, 5.04.
For the sequence “GATGATTGTTCTCCCAGCTGATGAATTAAAACTATCGAGTAAACAAATTTTCCTAATCTTTCTGTTCAAGCGCCATCTAC”, the binding signal (RPM ratio (pull-down/input)) was determined as 0.372.
As for “GATGATTGTTCTCCCAGCTGATGAATTTGTCCGGTCGAGTAAACAAATTTTCCTAATCTTTCTGTTCAAGCGCCATCTAC”, the binding signal (RPM ratio (pull-down/input)) came to 1.17.
Next, “GATGATTGTTCTCCCAGCTGATGAATTGAGTTGATCGAGTAAACAAATTTTCCTAATCTTTCTGTTCAAGCGCCATCTAC”: 1.81; “GATGATTGTTCTCCCAGCTGATGAATTGAACGCTTCGAGTAAACAAATTTTCCTAATCTTTCTGTTCAAGCGCCATCTAC”: 0.415; “GATGATTGTTCTCCCAGCTGATGAATTGCCACTTTCGAGTAAACAAATTTTCCTAATCTTTCTGTTCAAGCGCCATCTAC”: 1.35.
Under “GATGATTGTTCTCCCAGCTGATGAATTTAGGGATTCGAGTAAACAAATTTTCCTAATCTTTCTGTTCAAGCGCCATCTAC” stands 0.588.
Under “GATGATTGTTCTCCCAGCTGATGAATTGCTTCAGTCGAGTAAACAAATTTTCCTAATCTTTCTGTTCAAGCGCCATCTAC” stands 0.407; under “GATGATTGTTCTCCCAGCTGATGAATTTCTGTCGTCGAGTAAACAAATTTTCCTAATCTTTCTGTTCAAGCGCCATCTAC”, 0.35.
“GATGATTGTTCTCCCAGCTGATGAATTCGCTCGTTCGAGTAAACAAATTTTCCTAATCTTTCTGTTCAAGCGCCATCTAC”: the binding signal (RPM ratio (pull-down/input)) was determined as 0.348.
Under “GATGATTGTTCTCCCAGCTGATGAATTGCGGCTTTCGAGTAAACAAATTTTCCTAATCTTTCTGTTCAAGCGCCATCTAC” stands 1.98.
Under “GATGATTGTTCTCCCAGCTGATGAATTATTACGATCGAGTAAACAAATTTTCCTAATCTTTCTGTTCAAGCGCCATCTAC” stands 0.354; under “GATGATTGTTCTCCCAGCTGATGAATTTGACCCTTCGAGTAAACAAATTTTCCTAATCTTTCTGTTCAAGCGCCATCTAC”, 0.506; under “GATGATTGTTCTCCCAGCTGATGAATTCAATATATCGAGTAAACAAATTTTCCTAATCTTTCTGTTCAAGCGCCATCTAC”, 0.729.
Under “GATGATTGTTCTCCCAGCTGATGAATTCGCCGTTTCGAGTAAACAAATTTTCCTAATCTTTCTGTTCAAGCGCCATCTAC” stands 0.658; under “GATGATTGTTCTCCCAGCTGATGAATTTGATAAATCGAGTAAACAAATTTTCCTAATCTTTCTGTTCAAGCGCCATCTAC”, 0.251; under “GATGATTGTTCTCCCAGCTGATGAATTGGCTTTATCGAGTAAACAAATTTTCCTAATCTTTCTGTTCAAGCGCCATCTAC”, 1.2.
Turning to “GATGATTGTTCTCCCAGCTGATGAATTTGACGTCTCGAGTAAACAAATTTTCCTAATCTTTCTGTTCAAGCGCCATCTAC”, the binding signal (RPM ratio (pull-down/input)) came to 1.33.
Under “GATGATTGTTCTCCCAGCTGATGAATTGACAGCTTCGAGTAAACAAATTTTCCTAATCTTTCTGTTCAAGCGCCATCTAC” stands 0.456; under “GATGATTGTTCTCCCAGCTGATGAATTAGAATTTTCGAGTAAACAAATTTTCCTAATCTTTCTGTTCAAGCGCCATCTAC”, 0.488; under “GATGATTGTTCTCCCAGCTGATGAATTCTTGGCTTCGAGTAAACAAATTTTCCTAATCTTTCTGTTCAAGCGCCATCTAC”, 0.275.
Next, “GATGATTGTTCTCCCAGCTGATGAATTAAAATAGTCGAGTAAACAAATTTTCCTAATCTTTCTGTTCAAGCGCCATCTAC”: 0.355; “GATGATTGTTCTCCCAGCTGATGAATTCACATTTTCGAGTAAACAAATTTTCCTAATCTTTCTGTTCAAGCGCCATCTAC”: 0.391; “GATGATTGTTCTCCCAGCTGATGAATTGGGATCGTCGAGTAAACAAATTTTCCTAATCTTTCTGTTCAAGCGCCATCTAC”: 0.386.
Next, “GATGATTGTTCTCCCAGCTGATGAATTGCCACTCTCGAGTAAACAAATTTTCCTAATCTTTCTGTTCAAGCGCCATCTAC”: 1.37.
Regarding “GATGATTGTTCTCCCAGCTGATGAATTGTGACTGTCGAGTAAACAAATTTTCCTAATCTTTCTGTTCAAGCGCCATCTAC”, the binding signal (RPM ratio (pull-down/input)) was found to be 1.45.
With “GATGATTGTTCTCCCAGCTGATGAATTCTGCACTTCGAGTAAACAAATTTTCCTAATCTTTCTGTTCAAGCGCCATCTAC”, the binding signal (RPM ratio (pull-down/input)) was 1.35.
Turning to “GATGATTGTTCTCCCAGCTGATGAATTGCACTACTCGAGTAAACAAATTTTCCTAATCTTTCTGTTCAAGCGCCATCTAC”, the binding signal (RPM ratio (pull-down/input)) was 0.92.
Next, “GATGATTGTTCTCCCAGCTGATGAATTTGTATTGTCGAGTAAACAAATTTTCCTAATCTTTCTGTTCAAGCGCCATCTAC”: 6.39; “GATGATTGTTCTCCCAGCTGATGAATTCAAACTGTCGAGTAAACAAATTTTCCTAATCTTTCTGTTCAAGCGCCATCTAC”: 0.354; “GATGATTGTTCTCCCAGCTGATGAATTTATATGATCGAGTAAACAAATTTTCCTAATCTTTCTGTTCAAGCGCCATCTAC”: 0.725.
Next, “GATGATTGTTCTCCCAGCTGATGAATTTCAGCCTTCGAGTAAACAAATTTTCCTAATCTTTCTGTTCAAGCGCCATCTAC”: 1.56.
Regarding “GATGATTGTTCTCCCAGCTGATGAATTCTCGTTATCGAGTAAACAAATTTTCCTAATCTTTCTGTTCAAGCGCCATCTAC”, the binding signal (RPM ratio (pull-down/input)) stood at 0.573.
Under “GATGATTGTTCTCCCAGCTGATGAATTAGCCACTTCGAGTAAACAAATTTTCCTAATCTTTCTGTTCAAGCGCCATCTAC” stands 1.09; under “GATGATTGTTCTCCCAGCTGATGAATTCGTGTTTTCGAGTAAACAAATTTTCCTAATCTTTCTGTTCAAGCGCCATCTAC”, 1.7; under “GATGATTGTTCTCCCAGCTGATGAATTGATGCCATCGAGTAAACAAATTTTCCTAATCTTTCTGTTCAAGCGCCATCTAC”, 3.67.
Under “GATGATTGTTCTCCCAGCTGATGAATTTGCTTCCTCGAGTAAACAAATTTTCCTAATCTTTCTGTTCAAGCGCCATCTAC” stands 3.03; under “GATGATTGTTCTCCCAGCTGATGAATTCCCCGATTCGAGTAAACAAATTTTCCTAATCTTTCTGTTCAAGCGCCATCTAC”, 0.223.
Next, “GATGATTGTTCTCCCAGCTGATGAATTCATTTTATCGAGTAAACAAATTTTCCTAATCTTTCTGTTCAAGCGCCATCTAC”: 0.661; “GATGATTGTTCTCCCAGCTGATGAATTCGCACGGTCGAGTAAACAAATTTTCCTAATCTTTCTGTTCAAGCGCCATCTAC”: 0.315.
As to “GATGATTGTTCTCCCAGCTGATGAATTAAAGAGATCGAGTAAACAAATTTTCCTAATCTTTCTGTTCAAGCGCCATCTAC”, the binding signal (RPM ratio (pull-down/input)) turned out to be 0.203.
Next, “GATGATTGTTCTCCCAGCTGATGAATTGAGACGATCGAGTAAACAAATTTTCCTAATCTTTCTGTTCAAGCGCCATCTAC”: 0.262; “GATGATTGTTCTCCCAGCTGATGAATTGTTGAATTCGAGTAAACAAATTTTCCTAATCTTTCTGTTCAAGCGCCATCTAC”: 1; “GATGATTGTTCTCCCAGCTGATGAATTACTACCTTCGAGTAAACAAATTTTCCTAATCTTTCTGTTCAAGCGCCATCTAC”: 0.368.
Under “GATGATTGTTCTCCCAGCTGATGAATTTTATGAATCGAGTAAACAAATTTTCCTAATCTTTCTGTTCAAGCGCCATCTAC” stands 0.331; under “GATGATTGTTCTCCCAGCTGATGAATTGGGAGTCTCGAGTAAACAAATTTTCCTAATCTTTCTGTTCAAGCGCCATCTAC”, 0.948; under “GATGATTGTTCTCCCAGCTGATGAATTGCTCCACTCGAGTAAACAAATTTTCCTAATCTTTCTGTTCAAGCGCCATCTAC”, 0.477.
For “GATGATTGTTCTCCCAGCTGATGAATTAGGCTACTCGAGTAAACAAATTTTCCTAATCTTTCTGTTCAAGCGCCATCTAC”, the binding signal (RPM ratio (pull-down/input)) came out at 1.44.
Under “GATGATTGTTCTCCCAGCTGATGAATTACGTGCTTCGAGTAAACAAATTTTCCTAATCTTTCTGTTCAAGCGCCATCTAC” stands 0.637.
Under “GATGATTGTTCTCCCAGCTGATGAATTACGTGGGTCGAGTAAACAAATTTTCCTAATCTTTCTGTTCAAGCGCCATCTAC” stands 0.527.
